# Hit rate of the full screen: of about 140,000 compounds, about 240 (0.17%) were called active. Inconclusive results, whose numbers are uncertain, are shown with a selection of clear calls. The call rests on the fitted dose curve; in most records, active means well fitted inhibition curve with a large enough effect; inconclusive means small, poorly fitted or top-dose-only effect; inactive means no such curve, though single readings can be large or run the other way. Where the call is inconclusive, the potency comes from a doubtful curve fit.
# Assay: Primary qHTS assay for inhibitors of alpha-synuclein gene (SNCA) expression; further: nearly all actives have a fitted effect of over 45% in size
# Conditions: HEK-293 SNCA-luciferase knock-in, luminescence, 24 h; series mostly up to 57.2 µM
# Potency means the concentration at half of the fitted maximal effect; tags describe the fitted curve by direction and shape.
row,Structure (SMILES),Potency
1,CCCN1CCO[C@@H]2c3cc(O)ccc3OC[C@@H]21,"inconclusive: 21.5 µM [inhibitor, partial curve]"
2,O=c1ccc(-c2ccc(Cl)cc2)c2n1C[C@H]1C[C@@H]2CN(S(=O)(=O)c2cccs2)C1,"inconclusive: 39.8 µM [inhibitor, single point]"
3,C[C@@H]1O[C@@H](O[C@H]2C[C@@H](O)[C@]3(CO)[C@H]4[C@H](O)C[C@]5(C)[C@@H](C6=CC(=O)OC6)CC[C@]5(O)[C@@H]4CC[C@]3(O)C2)[C@H](O)[C@H](O)[C@H]1O,"inconclusive: 0.341 µM [inhibitor, full curve]"
4,CCOC(=O)[C@H]1CN(C(=O)OCC(C)(C)C)[C@]2(C)C(=O)N(CC3CC3)c3ccccc3[C@H]12,"inconclusive: 10 µM [inhibitor, partial curve, poor fit]"
5,Cn1nc(C2CCCCC2)cc1[C@H]1CN2CC[C@H]1C[C@@H]2CO,"inconclusive: 56.2 µM [inhibitor, single point]"
6,COc1ccc(NC(=O)NC[C@H]2C[C@@H]3CCN2C[C@@H]3c2cc(-c3ccccc3Br)nc(C)n2)cc1,"inconclusive: 5.01 µM [inhibitor, single point]"
7,CC[C@@H]1[C@@H](C)O[C@@](O)([C@@H](C)[C@H](O)[C@H](C)[C@H]2OC(=O)C=CC=C[C@@H](C)[C@@H]([C@@H](C)[C@@H](O)[C@H](C)[C@@]3(O)C[C@H](O[C@H]4C[C@H](O)[C@H](O)[C@H](C)O4)[C@H](CC)[C@@H](C)O3)OC(=O)C=CC=C[C@@H]2C)C[C@H]1O[C@H]1C[C@H](O)[C@H](O)[C@H](C)O1,"inconclusive: 1.21 µM [inhibitor, full curve, poor fit]"
8,O=c1oc2ccccc2c(O)c1Cc1c(O)c2ccccc2oc1=O,inactive
9,O=C(Nc1ccccc1)N1CC2(CCN(C(=O)Oc3ccccc3)CC2)C1,"inconclusive: 15.8 µM [inhibitor, single point]"
10,CCCNC(=O)N1[C@H]2CC[C@@H]1c1cnc(-c3ccc(F)cc3)nc1C2,inactive
11,O=C(NC1CCCCC1)[C@H]1CN2CC[C@H]1C[C@@H]2Cn1cc(C2(O)CCCC2)nn1,"inconclusive: 56.2 µM [inhibitor, single point]"
12,COc1ccc(S(=O)(=O)NC[C@H]2C[C@@H]3CCN2C[C@@H]3CN2CCCCC2)cc1,inactive
13,COc1ccc(-c2cc([C@H]3CN4CC[C@H]3C[C@@H]4CNC(=O)c3ccc(C(C)(C)C)cc3)n(C)n2)cc1OC,inactive
14,Cc1nc(-c2cccs2)cc([C@H]2CN3CC[C@H]2C[C@@H]3COC(=O)NC2CCCCC2)n1,"inconclusive: 39.8 µM [inhibitor, single point]"

# Reference: PubChem BioAssay AID1671194 (National Center for Advancing Translational Sciences (NCATS), 2021)
